According to patent US4613613A, “γ-butyrolactone derivatives, process for preparing the same and immunomodulating compositions containing the same as active ingredients” (Mitsubishi Yuka Pharmaceutical Co., Ltd., priority 1983, dated 1986):
At least one read-out could not be matched to a standard name with certainty.

These molecules were tested on Plaque Formation Cell (PFC) (assay: Antibody Formation Potentiating Activity (Plaque Formation Cell number in spleen of mice sensitized with sheep red blood cell)). Details: ICR mice, oral, 1% tragacanth suspension, 10 ml/kg; relative to Control 1.00; dose not given.
Type: in vivo, mouse (ICR strain male mice)
For `CC(C)C(=O)SCC1C(=O)OCC1c1ccccc1` (stereo not shown) [Compound 71], the S.I. was 1.92. With `Cc1ccccc1C(=O)SCC1C(=O)OCC1c1ccccc1` (stereo not shown) [Compound 10] the S.I. was 2.20. `Cc1ccc(C(=O)SCC2C(=O)OCC2c2ccccc2C)cc1` (stereo not shown) [Compound 28] gave a S.I. of 2.08. With `CCCCC(=O)SCC1C(=O)OCC1c1ccccc1` (stereo not shown) [Compound 41] the S.I. was 3.34. Work on `CC(=O)SCC1CC(c2ccccc2)OC1=O` (stereo not shown) [Compound 62] yielded a S.I. of 2.76. `Cc1ccc(C(=O)SCC2C(=O)OCC2c2ccc(Cl)cc2)cc1` (stereo not drawn) [Compound 1, β-(p-chlorophenyl)-α-(p-methylbenzoylthiomethyl)-γ-butyrolactone] showed a S.I. of 1.85. `CC(=O)SCC1C(=O)OCC1c1cccc(C)c1` (stereo not shown) [Compound 50] showed a S.I. of 1.50. Work on `Cc1ccc(C(=O)SCC2C(=O)OCC2c2ccccc2)cc1` (stereo not shown) [Compound 7] yielded a S.I. of 2.75. `O=C(Cc1ccccc1)SCC1C(=O)OCC1c1ccccc1` (stereo not shown) [Compound 66] gave a S.I. of 1.87. For `Cc1cccc(C(=O)SCC2C(=O)OCC2c2ccc(Cl)cc2)c1` (stereo not shown) [Compound 20], the S.I. was 2.15. `Cc1ccc(C(=O)SCC2C(=O)OCC2c2ccccc2)c(C)c1` (stereo not shown) [Compound 78] was tested, and the S.I. was 1.47. In the case of `Cc1cccc(C(=O)SCC2C(=O)OCC2c2ccccc2C)c1` (stereo not shown) [Compound 30], the S.I. is reported as 2.69. In the case of `N#Cc1ccc(C2COC(=O)C2CSC(=O)c2ccccc2)cc1` (stereo not shown) [Compound 56], the S.I. is reported as 1.62. `CCCCCCCC(=O)SCC1C(=O)OCC1c1ccccc1` (stereo not shown) [Compound 73] showed a S.I. of 1.76. For `CC(=O)SCC1C(=O)OCC1C1CCCCC1` (stereo not shown) [Compound 63], the S.I. was 1.81. `CCc1ccc(C(=O)SCC2C(=O)OCC2c2ccc(Cl)cc2)cc1` (stereo not shown) [Compound 21] was tested, and the S.I. was 1.73. `CC(=O)SCC1C(=O)OCC1c1ccccc1C` (stereo not shown) [Compound 48] was tested, and the S.I. was 1.91. With `COc1ccc(C(=O)SCC2C(=O)OCC2c2ccc(C)cc2)cc1` (stereo not shown) [Compound 14] the S.I. was 2.55. `O=C(SCC1C(=O)OCC1c1ccccc1)c1ccc(F)cc1` (stereo not shown) [Compound 6] showed a S.I. of 1.81. In the case of `CCCCCC(=O)SCC1C(=O)OCC1c1ccccc1` (stereo not shown) [Compound 72], the S.I. is reported as 1.77. `O=C(SCC1CCOC1=O)c1ccccc1` (stereo not shown) [Compound 61] showed a S.I. of 1.41. `O=C(SCC1C(=O)OCC1c1ccccc1)c1ccccc1` (stereo not shown) [Compound 3] showed a S.I. of 1.65. For `CSCC1C(=O)OCC1c1ccccc1` (stereo not shown) [Compound 86], the S.I. was 1.59. For `CC(=O)SCC1C(=O)OCC1c1ccccc1` (stereo not drawn) [Compound 40, α-acetylthiomethyl-β-phenyl-γ-butyrolactone], the S.I. was 1.56. `O=C(SCC1C(=O)OCC1c1ccc(Cl)cc1)c1ccccc1` (stereo not drawn) [Compound 74, α-benzoylthiomethyl-β-(p-chlorophenyl)-γ-butyrolactone] showed a S.I. of 2.23. Molecule `Cc1ccc(C2COC(=O)C2CSC(=O)c2ccccc2)cc1` (stereo not shown) [Compound 13] has a S.I. of 1.92. Molecule `O=C(SCC1C(=O)OCC1c1ccc([N+](=O)[O-])cc1)c1ccccc1` (stereo not shown) [Compound 26] has a S.I. of 1.49. `CCC(=O)SCC1C(=O)OCC1c1ccccc1` (stereo not shown) [Compound 67] gave a S.I. of 1.94. In the case of `CCCCC(=O)SCC1C(=O)OCC1c1ccccc1C` (stereo not shown) [Compound 49], the S.I. is reported as 3.07. `Cc1ccc(C2COC(=O)C2CSCc2ccccc2)cc1` (stereo not shown) [Compound 88] gave a S.I. of 1.50. `CCCC(=O)SCC1C(=O)OCC1c1ccccc1` (stereo not shown) [Compound 70] gave a S.I. of 2.72. With `COc1ccc(C(=O)SCC2C(=O)OCC2c2ccccc2)cc1` (stereo not shown) [Compound 4] the S.I. was 1.79. `O=C1OCC(c2ccccc2)C1CSC1CCCCC1` (stereo not shown) [Compound 87] gave a S.I. of 2.06. With `Cc1ccc(C(=O)SCC2C(=O)OCC2c2cccc(C)c2)cc1` (stereo not shown) [Compound 34] the S.I. was 1.49. `O=C1OCC(c2ccccc2)C1CSCc1ccccc1` (stereo not shown) [Compound 84] was tested, and the S.I. was 1.94. Molecule `O=C(SCC1C(=O)OCC1c1ccccc1)c1ccc([N+](=O)[O-])cc1` (stereo not shown) [Compound 5] has a S.I. of 2.73. With `Cc1ccccc1C1COC(=O)C1CSC(=O)c1ccc(F)cc1` (stereo not shown) [Compound 39] the S.I. was 1.76. For `CCc1ccc(C(=O)SCC2C(=O)OCC2c2ccccc2)cc1` (stereo not shown) [Compound 11], the S.I. was 1.71. For `O=C1OCC(c2ccc(Cl)cc2)C1CS` (stereo not drawn) [Compound 81, β-(p-chlorophenyl)-α-mercaptomethyl-γ-butyrolactone], the S.I. was 1.54. Molecule `O=C(SCC1C(=O)OCC1c1ccccc1)c1ccccc1F` (stereo not drawn) [Compound 76, α-(o-fluorobenzoylthiomethyl)-β-phenyl-γ-butyrolactone] has a S.I. of 1.64. `Cc1ccccc1C(=O)SCC1C(=O)OCC1c1ccccc1C` (stereo not shown) [Compound 31] gave a S.I. of 3.08. With `O=C(SC[C@@H]1C(=O)OC[C@H]1c1ccc(Cl)cc1)c1ccc(F)cc1` (relative stereo) [Compound 23] the S.I. was 1.98. Work on `Cc1ccc(C2COC(=O)C2CSC(=O)c2cccc(C)c2)cc1` (stereo not shown) [Compound 16] yielded a S.I. of 1.47.
